This is one part of the list.
Assays:
HSkMC = human skeletal muscle cells; test: cytotoxicity call (relative viability < 0.9); details: 10 µM
HepG2 = test: cytotoxicity call (relative viability < 0.9); details: 10 µM
S. aureus RN4220 = test: growth inhibition call (relative growth <= 0.2); details: 50 µM

Row | Compound | cytotoxicity call (HSkMC) | cytotoxicity call (HepG2) | growth inhibition call (S. aureus RN4220)
1 | O=C(CN1CCC2(CC1)OCCC[C@@H]2O)N1CCOCC1 | inactive | inactive | inactive
2 | Cc1ccc(S(=O)(=O)Nc2ccc3c(c2)C(=O)N([C@H](C)CO)C[C@@H](C)[C@H](CN(C)S(=O)(=O)c2cccs2)O3)cc1 | inactive | inactive | inactive
3 | Cc1ccc(S(=O)(=O)N(C)C[C@H]2Oc3ccc(NC(=O)c4ccncc4)cc3C(=O)N([C@@H](C)CO)C[C@H]2C)cc1 | inactive | inactive | inactive
4 | C[C@@H]1CN([C@@H](C)CO)S(=O)(=O)c2ccc(C#CC3(O)CCCC3)cc2O[C@@H]1CN(C)C(=O)Nc1cccc(F)c1 | inactive | inactive | inactive
5 | C[C@@H]1CN([C@@H](C)CO)C(=O)c2cc(NS(=O)(=O)c3ccc(F)cc3)ccc2O[C@H]1CN(C)S(C)(=O)=O | inactive | inactive | inactive
6 | CS(=O)(=O)SCCN | inactive | inactive | inactive
7 | C[C@@H]1CN([C@H](C)CO)C(=O)Cc2cc(NC(=O)Cc3cn(C)c4ccccc34)ccc2O[C@H]1CN(C)Cc1ccc(Cl)c(Cl)c1 | active | inactive | inactive
8 | CN(C)CCCNC(=O)C[C@@H]1CC[C@@H]2[C@@H](COc3ccc(NC(=O)c4ccccc4F)cc3C(=O)N2C)O1 | inactive | inactive | inactive
9 | C[C@@H]1CCCCO[C@@H](CN(C)C(=O)Nc2ccc(F)cc2)[C@H](C)CN([C@@H](C)CO)C(=O)c2cc(NC(=O)Nc3ccccc3)ccc2O1 | inactive | inactive | inactive
10 | CN(C)C(=O)C[C@H]1CC[C@H]2[C@@H](COc3ccc(NS(=O)(=O)c4cccc(F)c4)cc3C(=O)N2C)O1 | inactive | inactive | inactive
11 | C[C@@H]1CN([C@@H](C)CO)S(=O)(=O)c2ccc(C#CCN(C)C)cc2O[C@H]1CN(C)Cc1ccc2c(c1)OCO2 | inactive | inactive | inactive
12 | Cc1ccc(S(=O)(=O)N2C[C@@H](O)COC[C@@H]3O[C@H](CC(=O)N4CCc5ccccc5C4)CC[C@H]32)cc1 | inactive | inactive | inactive
13 | O=c1cc(CN2CC[C@H](N3CCOCC3)[C@H](CCCO)C2)nc2c(O)cccn12 | inactive | inactive | inactive
14 | C[C@H]1CN([C@@H](C)CO)C(=O)c2cc(NC(=O)NC3CCCCC3)ccc2O[C@H]1CN(C)Cc1ccc(C(=O)Nc2ccccc2N)cc1 | inactive | inactive | inactive
15 | C=c1ccc(C)cc1=C1NN=C(NC(=O)c2ccc(S(=O)(=O)N(CCOC)CCOC)cc2)O1 | active | inactive | inactive
16 | COc1cccc(C(=O)Nc2ccc3c(c2)C(=O)N(C)[C@@H]2CC[C@H](CC(=O)NCCCN4CCOCC4)O[C@H]2CO3)c1 | inactive | inactive | inactive
17 | CC/N=c1\sc(C(=O)OC)cc(=O)n1CC | inactive | inactive | inactive
18 | Cc1ccc(S(=O)(=O)N(C)C[C@H]2Oc3ccc(NC(=O)Nc4ccc(C(F)(F)F)cc4)cc3C(=O)N([C@H](C)CO)C[C@@H]2C)cc1 | inactive | inactive | inactive
19 | NCC[C@H]1CC[C@@H](NC(=O)C2CC2)[C@H](CO)O1 | inactive | inactive | inactive
20 | CC(C)N1C[C@H](C)[C@@H](CN(C)Cc2ccc(Oc3ccccc3)cc2)Oc2c(cccc2-c2cn(-c3ccncc3)nn2)C1=O | inactive | inactive | inactive
21 | C[C@H]1CN([C@@H](C)CO)S(=O)(=O)c2ccc(-c3cccnc3)cc2O[C@H]1CN(C)C(=O)c1cccc(F)c1 | inactive | inactive | inactive
22 | O=C(CCCCCCC(=O)Nc1ccc([C@H]2C[C@@H](CSc3nc(-c4ccccc4)c(-c4ccccc4)o3)O[C@H](c3ccccc3)O2)cc1)NO | inactive | inactive | inactive
23 | COCC(=O)Nc1ccc2c(c1)C(=O)N(C)C[C@H](OC)[C@@H](C)CN(Cc1ccccc1OC)[C@H](C)CO2 | inactive | inactive | inactive
24 | C[C@@H]1CCCCO[C@H](CN(C)Cc2ccncc2)[C@@H](C)CN([C@H](C)CO)C(=O)c2cc(NC(=O)C3CCCCC3)ccc2O1 | inactive | inactive | inactive
25 | COc1ccccc1-c1ccc2c(c1)O[C@@H](CN(C)C(=O)c1ccncc1)[C@H](C)CN([C@H](C)CO)S2(=O)=O | inactive | inactive | inactive
26 | O=C(O)/C=C/C1=C[C@@H]2[C@@H](O)[C@@H](O)[C@H]1[C@H](C(=O)O[C@@H](Cc1ccc(O)c(O)c1)C(=O)O)[C@@H]2c1ccc(O)c(O)c1 | inactive | inactive | inactive
27 | CN1C(=O)c2cc(NS(=O)(=O)c3cccc(F)c3)ccc2OC[C@H]2O[C@@H](CC(=O)NCCN3CCCCC3)CC[C@@H]21 | inactive | inactive | inactive
28 | Cc1ccc(S(=O)(=O)Nc2ccc3c(c2)C(=O)N([C@H](C)CO)C[C@H](C)[C@H](CN(C)Cc2ccncc2)OCCCC[C@@H](C)O3)cc1 | inactive | inactive | inactive
29 | O=c1[nH]c2ccc(F)cc2nc1O | inactive | inactive | inactive
